Data: patent US20090305982A1 (Pieris, published 2009)
Changes are numbered by the printed parent chain. In names and notes the source's numbering stands. One block for each binder: values may come before it.

Experiments:
[1] = biological target: T1, human IL-4 receptor alpha on cells (peripheral blood lymphocytes, primary B cells, TF-1, A549, PBMC) (human, UniProt P24394 26-825); assay: flow cytometry on human PBMC: lipocalin, anti-CD20-FITC, biotinylated anti-lipocalin antiserum, streptavidin-PE; B cells gated as CD20 positive [C]
T1 construct: Native receptor on human cells; also called IL-4Rα

human serum albumin = biological target: T2, human serum albumin (human, UniProt P02768 25-609); assay: SPR (Biacore), ~850 RU human serum albumin amine-coupled, fusion injected at 500 nM
T2 construct: also called HSA

[2] = biological target: T1, human IL-4 receptor alpha on cells …; assay: flow cytometry, human peripheral blood lymphocytes, 10 µg/ml
[3] = biological target: T3, cynomolgus IL-4 receptor alpha on peripheral blood lymphocytes (cynomolgus); assay: flow cytometry, cynomolgus peripheral blood lymphocytes, 10 µg/ml
T3 construct: whole, on cells

[4] = biological target: T4, IL-4 receptor alpha-Fc (R&D Systems) (human, UniProt P24394 26-232); assay: SPR (Biacore), IL-4 receptor alpha-Fc captured via anti-human Fc, mutein injected; average (SD) of five
T4 construct: Bought Fc fusion

[5] = biological target: T5, biotinylated IL-4 receptor alpha (Peprotech) (human, UniProt P24394 26-232, limits assumed, biotinylated (sites not told)); assay: competition ELISA: biotinylated IL-4 receptor alpha (0.5 nM) preincubated with mutein, MAB230-coated plate (competitor MAB230); average (SD) of three
T5 construct: Bought soluble protein; also called IL-4R alpha-bio

[6] = biological target: T5, biotinylated IL-4 receptor alpha …; assay: competition ELISA: 0.5 nM biotinylated IL-4 receptor alpha pre-incubated with the mutein, free receptor caught on coated MAB230, detected with Extravidin-HRP; fit y = 0.5*(-m0+m2-m1+sqrt(-m0..., KD = m1 per legend paragraph 197)); x axis Anticaline/ nM; one representative experiment
[7] = biological target: T5, biotinylated IL-4 receptor alpha …; assay: as above; remark: listed apart in the source
[8] = biological target: T5, biotinylated IL-4 receptor alpha …; assay: competition ELISA: 0.5 nM biotinylated IL-4 receptor alpha pre-incubated with the mutein, free receptor caught on coated MAB230, detected with Extravidin-HRP; fit y = 0.5*(-m0+m2-m1+sqrt(-m0..., KD = m1 per legend paragraph 197)); one representative experiment
[9] = biological target: T5, biotinylated IL-4 receptor alpha …; assay: competition ELISA: 0.5 nM biotinylated IL-4 receptor alpha pre-incubated with the mutein, free receptor caught on coated MAB230, detected with Extravidin-HRP; fit y = 0.5*(-m0+m2-m1+sqrt(-m0..., KD = m1 per legend paragraph 197)); x axis Anticaline/ nM; one representative experiment; remark: listed apart in the source
[10] = biological target: T5, biotinylated IL-4 receptor alpha …; assay: competition ELISA: 0.5 nM biotinylated IL-4 receptor alpha pre-incubated with the mutein, free receptor caught on coated MAB230, detected with Extravidin-HRP; fit y = 0.5*(-m0+m2-m1+sqrt(-m0..., KD = m1 per legend paragraph 197)); one representative experiment; remark: listed apart in the source
[11] = biological target: T1, human IL-4 receptor alpha on cells …; assay: cell-based or functional assay
[12] = biological target: T1, human IL-4 receptor alpha on cells …; assay: cell-based or functional assay; remark: listed apart in the source
[13] = biological target: T1, human IL-4 receptor alpha on cells …; assay: cell-based or functional assay; remark: listed apart in the source
[14] = biological target: T1, human IL-4 receptor alpha on cells …; assay: flow cytometry on human primary B cells (CD20+ PBMC), anti-lipocalin antiserum and streptavidin-PE; % PE-positive B cells against concentration
[15] = biological target: T5, biotinylated IL-4 receptor alpha …; assay: competition ELISA: 0.5 nM biotinylated IL-4 receptor alpha pre-incubated with the mutein, free receptor caught on coated MAB230, detected with Extravidin-HRP; fit y = 0.5*(-m0+m2-m1+sqrt(-m0..., KD = m1 per legend paragraph 197)); one representative experiment; remark: listed apart in the source
VEGF-R2-Fc (R&D Systems) [16] = biological target: T6, VEGF-R2-Fc (R&D Systems) (Homo sapiens (Human), UniProt P35968 20-764); assay: SPR (Biacore), ~500 RU VEGF-R2-Fc captured, mutein injected at 1.5 µM
T6 construct: Bought Fc fusion; not shown: Fc part (detected with anti-human Fc antibody)

VEGF-R2-Fc (R&D Systems) [17] = biological target: T6, VEGF-R2-Fc (R&D Systems); assay: competition ELISA: VEGF-R2-Fc (4 nM) preincubated with mutein, VEGF8-109-coated plate (competitor VEGF8-109)
[18] = biological target: T4, IL-4 receptor alpha-Fc (R&D Systems); assay: SPR (Biacore), ~500 RU IL-4 receptor alpha-Fc, PEGylated mutein at 200, 67 and 22 nM

T6 sequence (P35968 20-764 limits assumed): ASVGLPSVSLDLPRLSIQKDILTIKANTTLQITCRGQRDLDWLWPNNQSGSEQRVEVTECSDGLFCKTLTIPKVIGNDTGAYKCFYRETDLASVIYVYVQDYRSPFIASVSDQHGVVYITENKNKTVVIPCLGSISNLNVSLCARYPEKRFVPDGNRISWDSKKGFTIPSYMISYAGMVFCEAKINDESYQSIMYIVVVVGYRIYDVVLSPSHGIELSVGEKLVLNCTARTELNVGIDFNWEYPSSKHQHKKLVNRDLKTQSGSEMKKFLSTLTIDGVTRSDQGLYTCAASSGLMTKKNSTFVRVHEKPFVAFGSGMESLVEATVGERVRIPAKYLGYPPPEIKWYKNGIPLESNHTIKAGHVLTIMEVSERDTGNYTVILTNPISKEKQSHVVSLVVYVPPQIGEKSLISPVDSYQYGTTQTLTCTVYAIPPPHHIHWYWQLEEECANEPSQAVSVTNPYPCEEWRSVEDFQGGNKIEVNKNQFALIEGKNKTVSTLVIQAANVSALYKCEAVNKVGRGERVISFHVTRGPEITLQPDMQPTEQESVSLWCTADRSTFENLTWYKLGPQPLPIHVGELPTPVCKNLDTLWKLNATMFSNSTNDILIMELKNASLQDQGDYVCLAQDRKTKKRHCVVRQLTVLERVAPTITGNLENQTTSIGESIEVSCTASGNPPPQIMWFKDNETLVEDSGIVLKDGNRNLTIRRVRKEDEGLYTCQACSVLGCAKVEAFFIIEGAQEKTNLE

- binding result [1]: no binding
B1: wildtype tear lipocalin (gene product of pTLPC26) (other, human)
chain: ASDEEIQDVSGTWYLKAMTVDREFPEMNLESVTPMTLTTLEGGNLEAKVTMLISGRSQEVKAVLEKTDEPGKYTADGGKHVAYIIRSHVKDHYIFYSEGELHGKPVPGVWLVGRDPKNNLEALEDFEKAAGARGLSTESILIPRQSETSSPGSA
notes: Control; also called human tear lipocalin wt

- Kd (human serum albumin): ~20 nM
B2: wildtype Tlc-ABD (other)
chain: ASDEEIQDVSGTWYLKAMTVDREFPEMNLESVTPMTLTTLEGGNLEAKVTMLISGRSQEVKAVLEKTDEPGKYTADGGKHVAYIIRSHVKDHYIFYSEGELHGKPVPGVWLVGRDPKNNLEALEDFEKAAGARGLSTESILIPRQSETSSPGSAGAVDANSLAEAKVLANRELDKYGVSDYYKNLINNAKTVEGVKALIDEILAALPSAWSHPQFEK
notes: also called TLPC51

- % Positive [2]: 76%
- MFI [2]: 9.6
- % Positive [3]: 68%
- MFI [3]: 6.8
- Kd [4]: 0.0179 nM
- koff [4]: 4.2e-05 s⁻¹
- kon [4]: 2.3e+06 M⁻¹ s⁻¹
- Kd [5]: 0.0407 nM
- Kd [6]: 0.0371 nM
B3: human tear lipocalin mutein S148.3 J14AM2C2 (designed binder)
chain: ASDEEIQDVSGTWYLKAMTVDSRCPRAYYESVTPMTLTTLEGGNLEAKFTLQRRGRWQEGKLVLEKTDEPGKYTASGGRHVAYIIRSHVKDHYIFYSEGLCPGQPVPGVWLVGRDPKNNLEALEDFEKAAGARGLSTESILIPRQSETSSPGSA
notes: C-terminal Strep-tag II is part of the characterized protein; also called S148.3 AM2C2

- % Positive [2]: 72%
- MFI [2]: 9
- % Positive [3]: 42%
- MFI [3]: 4.1
- Kd [4]: 0.0243 nM
- koff [4]: 4.1e-05 s⁻¹
- kon [4]: 1.7e+06 M⁻¹ s⁻¹
- Kd [5]: 0.0617 nM
- Kd [7]: 0.0487 nM
B4: human tear lipocalin mutein S191.5 H16 (designed binder)
chain: B3 chain with E30D, F49G, R54K, W57P, G60M
notes: C-terminal Strep-tag II is part of the characterized protein

- % Positive [2]: 72%
- MFI [2]: 8.9
- % Positive [3]: 65%
- MFI [3]: 6.6
- Kd [4]: 0.0201 nM
- koff [4]: 3.6e-05 s⁻¹
- kon [4]: 1.7e+06 M⁻¹ s⁻¹
- Kd [5]: 0.12 nM
- Kd [8]: 0.104 nM
B5: human tear lipocalin mutein S191.4 K19 (designed binder)
chain: B3 chain with Y28H, E30S, F49L, R54A, L62I
notes: as for B4

- % Positive [2]: 72%
- MFI [2]: 9.3
- % Positive [3]: 70%
- MFI [3]: 7.1
- Kd [4]: 0.0558 nM
- koff [4]: 6.3e-05 s⁻¹
- kon [4]: 1.1e+06 M⁻¹ s⁻¹
- Kd [5]: 0.14 nM
- Kd [9]: 0.107 nM
B6: human tear lipocalin mutein S197.8 D22 (designed binder)
chain: B3 chain with E30G, F49L, R54S, G60S, L62V
notes: as for B4

- % Positive [2]: 74%
- MFI [2]: 9.7
- % Positive [3]: 78%
- MFI [3]: 9
- Kd [4]: 0.0135 nM
- koff [4]: 7.7e-05 s⁻¹
- kon [4]: 5.8e+06 M⁻¹ s⁻¹
- Kd [5]: 0.0253 nM
- Kd [10]: 0.0372 nM
B7: human tear lipocalin mutein S191.5 K12 (designed binder)
chain: B3 chain with E30K, L51A, R54N, G60L, T74A
notes: as for B4

- IC50, IL-4 mediated eotaxin-3 secretion in A549 cells [12]: 32 nM
- IC50, IL-13 mediated eotaxin-3 secretion in A549 cells [12]: 5.1 nM
- IC50, IL-4 mediated CD23 expression in PBMCs [13]: 905 nM
- IC50, IL-13 mediated CD23 expression in PBMCs [13]: 72 nM
- % Positive [2]: 74%
- MFI [2]: 9.3
- % Positive [3]: 80%
- MFI [3]: 9.2
- Kd [4]: 0.0193 nM
- koff [4]: 4.9e-05 s⁻¹
- kon [4]: 2.6e+06 M⁻¹ s⁻¹
- EC50 [14]: 0.105 nM
- Kd [5]: 0.0492 nM
- Kd [15]: 0.0524 nM
B8: human tear lipocalin mutein S191.4 B24 (designed binder)
chain: B3 chain with E30S, L51A, R54S, G60Y, Y96H
- Kd on cells, Schild analysis of IL-4 dependent TF-1 viability (linear regression) [11]: 0.192 nM
- Kd on cells, Schild analysis of IL-4 dependent TF-1 viability (non-linear regression) [11]: 0.116 nM

- Kd (VEGF-R2-Fc (R&D Systems) [16]): 5.5 nM
- koff (VEGF-R2-Fc (R&D Systems) [16]): 0.00011 s⁻¹
- kon (VEGF-R2-Fc (R&D Systems) [16]): 21000 M⁻¹ s⁻¹
- Ki (VEGF-R2-Fc (R&D Systems) [17]): 12 nM
B9: human tear lipocalin mutein S197.7-N1 (designed binder)
chain: ASDEEIQDVSGTWYLKAMTVDSIFPSGRIYSVTPMTLTTLEGGNLEAKVTMEFRGRSQEVKAVLEKTDEPGKYTASGGEHVAYIIRSHVKDHYIFYSEGLAVRTPVPGVWLVGRDPKNNLEALEDFEKAAGARGLSTESILIPRQSETSSPGSA

- koff (VEGF-R2-Fc (R&D Systems) [16]): 2.4e-05 s⁻¹
- kon (VEGF-R2-Fc (R&D Systems) [16]): 12000 M⁻¹ s⁻¹
- Ki (VEGF-R2-Fc (R&D Systems) [17]): 3.5 nM
B10: human tear lipocalin mutein S197.2-L22 (designed binder)
chain: B9 chain with D68G, S76P, R103G

- Kd (VEGF-R2-Fc (R&D Systems) [16]): 35 nM
- koff (VEGF-R2-Fc (R&D Systems) [16]): 0.00036 s⁻¹
- kon (VEGF-R2-Fc (R&D Systems) [16]): 9000 M⁻¹ s⁻¹
- Ki (VEGF-R2-Fc (R&D Systems) [17]): 12.9 nM
B11: human tear lipocalin mutein S175.4 H11 (designed binder)
chain: B9 chain with E52K, R103G

- Kd (VEGF-R2-Fc (R&D Systems) [16]): 3.1 nM
- koff (VEGF-R2-Fc (R&D Systems) [16]): 8.3e-05 s⁻¹
- kon (VEGF-R2-Fc (R&D Systems) [16]): 27000 M⁻¹ s⁻¹
- Ki (VEGF-R2-Fc (R&D Systems) [17]): 5.5 nM
B12: human tear lipocalin mutein S197.2-I18 (designed binder)
chain: B9 chain with E52A, V60M, R103G

- Kd (VEGF-R2-Fc (R&D Systems) [16]): 2.7 nM
- koff (VEGF-R2-Fc (R&D Systems) [16]): 6.4e-05 s⁻¹
- kon (VEGF-R2-Fc (R&D Systems) [16]): 24000 M⁻¹ s⁻¹
- Ki (VEGF-R2-Fc (R&D Systems) [17]): 2.3 nM
B13: human tear lipocalin mutein S197.2-N24 (designed binder)
chain: B9 chain with E59K, R86K, R103E

- Kd (VEGF-R2-Fc (R&D Systems) [16]): 6 nM
- koff (VEGF-R2-Fc (R&D Systems) [16]): 0.00013 s⁻¹
- kon (VEGF-R2-Fc (R&D Systems) [16]): 23000 M⁻¹ s⁻¹
- Ki (VEGF-R2-Fc (R&D Systems) [17]): 3.8 nM
B14: human tear lipocalin mutein S197.7-B6 (designed binder)
chain: B9 chain with K72R, I85T, R103K

- Kd [18]: 30 nM
- koff [18]: 0.00493 s⁻¹
- kon [18]: 164000 M⁻¹ s⁻¹
B15: PEGylated mutein S148.3 J14 (designed binder)
chain: DASMTGGQQMGASDEEIQDVSGTWYLKAMTVDSRCPRAYYGSVTPMTLTTLEGGNLEAKVTMQRIGRSQEVKAVLEKTDEPGKYTASGGRHVAYIIRSHVKDHYIFYSEGLCPGQPVPGVWLVGRDPKNNLEALEDFCKAAGARGLSTESILIPRQSETSSPGSAWSHPQFEK
modifications: chain 1 pos 138 (Cys at mature tear lipocalin position 131): thiol coupled to linear polyethylene glycol maleimide, average 20 kDa, written C
notes: also called S148.3 J14-PEG
